Results reported in PubChem BioAssay (NCATS).
This list was built around the results that the source calls inconclusive (neither active nor inactive); the mix of calls is not that of the screen. For part of these data: Where the call is inconclusive, the potency comes from a doubtful curve fit. For part of these data: “Side channel” marks fits to a control or component signal instead of the main read-out. The source made the active and inactive calls. Unless noted, calls follow the shape of the dose curve; as a rule, active = well fitted curve in the direction sought with a large enough effect; inconclusive = small, poorly fitted or top-dose-only effect, or another doubt; inactive = no such curve, though single readings can be large; an effect the other way counts as inactive or inconclusive.

Legend:
[1] = Cytometric Cell-Based qHTS for Inhibitors of the mTORC1 Signaling Pathway in MEF (Tsc2-/-, p53-/-) Cells (AID 2660); also: potency is read from the fitted curve at half-maximal effect
Method in brief: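 Immunofluorescence qHTS of rpS6 Ser235/236 phosphorylation: MEFs (Tsc2-/-, p53-/-) treated 24 h, 37 C, in DMEM + 10% FBS. Alexa-488 signal normalized to PI count, referenced to rapamycin (7.5 nM) and DMSO; PI cell number recorded for viability.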

[2] = High Content Imaging Cell-Based qHTS for Inhibitors of the mTORC1 Signaling Pathway in MEF (Tsc2-/-, p53-/-) Cells (AID 2666);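 also: percent of cells scored positive for phospho-rpS6 Ser235/236 immunostaining by imaging; potency is read from the fitted curve at half-maximal effect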
Method in brief: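 Inhibition of rpS6 phosphorylation is measured by immunofluorescence imaging in empty-vector Tsc2-/-, p53-/- mouse embryonic fibroblasts after 24 hrs compound exposure at 37 degree Celsius. Results are reported as % positive cells per well.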

[3] = High Content Imaging Cell-Based qHTS for Inhibitors of the mTORC1 Signaling Pathway in MEF Cells (AID 2667); also: potency is read from the fitted curve at half-maximal effect
Method in brief: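 Fixed-cell imaging of phospho-S6 (Ser235/236, Alexa-488) after 24 hrs of compound treatment at 37 degree Celsius. Signal was normalized to Hoechst, and thresholds from the highest and lowest wells split cells into % active versus % non-active.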

[4] = Cytometry Cell-Based qHTS for Inhibitors of the mTORC1 Signaling Pathway in MEF cells (AID 2668); also: potency is read from the fitted curve at half-maximal effect
Method in brief: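 In MEFs grown in DMEM + 10% FBS, a 24 hrs compound exposure preceded imaging of phospho-rpS6 Ser235/236 by laser-scanning cytometry.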

[5] = Validation screen for small molecules that induce DNA re-replication in MCF 10A normal breast cells (AID 463097); also: potency is read from the fitted curve at half-maximal effect; nearly all actives have a fitted effect of over 60% in size
Method in brief: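 Following 48 hr compound incubation (37 C, 5% CO2), MCF 10A cells receive Hoechst for 40 min at 37 C. Nuclei are then scanned (excitation 405 nm, emission 500-530 nm) for total fluorescence intensity.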

[6] = molecular target: ATPase family AAA domain-containing protein 5 (Homo sapiens) (UniProt Q96QE3); assay: Validation screen for small molecules that inhibit ELG1-dependent DNA repair in human embryonic kidney (HEK293T) cells expressing luciferase-tagged ELG1 (AID 493107); also: potency is read from the fitted curve at half-maximal effect; nearly all actives have a fitted effect of over 70% in size
UniProt Q96QE3, sequence (Q96QE3 whole entry, looked up, the tested form may be a part): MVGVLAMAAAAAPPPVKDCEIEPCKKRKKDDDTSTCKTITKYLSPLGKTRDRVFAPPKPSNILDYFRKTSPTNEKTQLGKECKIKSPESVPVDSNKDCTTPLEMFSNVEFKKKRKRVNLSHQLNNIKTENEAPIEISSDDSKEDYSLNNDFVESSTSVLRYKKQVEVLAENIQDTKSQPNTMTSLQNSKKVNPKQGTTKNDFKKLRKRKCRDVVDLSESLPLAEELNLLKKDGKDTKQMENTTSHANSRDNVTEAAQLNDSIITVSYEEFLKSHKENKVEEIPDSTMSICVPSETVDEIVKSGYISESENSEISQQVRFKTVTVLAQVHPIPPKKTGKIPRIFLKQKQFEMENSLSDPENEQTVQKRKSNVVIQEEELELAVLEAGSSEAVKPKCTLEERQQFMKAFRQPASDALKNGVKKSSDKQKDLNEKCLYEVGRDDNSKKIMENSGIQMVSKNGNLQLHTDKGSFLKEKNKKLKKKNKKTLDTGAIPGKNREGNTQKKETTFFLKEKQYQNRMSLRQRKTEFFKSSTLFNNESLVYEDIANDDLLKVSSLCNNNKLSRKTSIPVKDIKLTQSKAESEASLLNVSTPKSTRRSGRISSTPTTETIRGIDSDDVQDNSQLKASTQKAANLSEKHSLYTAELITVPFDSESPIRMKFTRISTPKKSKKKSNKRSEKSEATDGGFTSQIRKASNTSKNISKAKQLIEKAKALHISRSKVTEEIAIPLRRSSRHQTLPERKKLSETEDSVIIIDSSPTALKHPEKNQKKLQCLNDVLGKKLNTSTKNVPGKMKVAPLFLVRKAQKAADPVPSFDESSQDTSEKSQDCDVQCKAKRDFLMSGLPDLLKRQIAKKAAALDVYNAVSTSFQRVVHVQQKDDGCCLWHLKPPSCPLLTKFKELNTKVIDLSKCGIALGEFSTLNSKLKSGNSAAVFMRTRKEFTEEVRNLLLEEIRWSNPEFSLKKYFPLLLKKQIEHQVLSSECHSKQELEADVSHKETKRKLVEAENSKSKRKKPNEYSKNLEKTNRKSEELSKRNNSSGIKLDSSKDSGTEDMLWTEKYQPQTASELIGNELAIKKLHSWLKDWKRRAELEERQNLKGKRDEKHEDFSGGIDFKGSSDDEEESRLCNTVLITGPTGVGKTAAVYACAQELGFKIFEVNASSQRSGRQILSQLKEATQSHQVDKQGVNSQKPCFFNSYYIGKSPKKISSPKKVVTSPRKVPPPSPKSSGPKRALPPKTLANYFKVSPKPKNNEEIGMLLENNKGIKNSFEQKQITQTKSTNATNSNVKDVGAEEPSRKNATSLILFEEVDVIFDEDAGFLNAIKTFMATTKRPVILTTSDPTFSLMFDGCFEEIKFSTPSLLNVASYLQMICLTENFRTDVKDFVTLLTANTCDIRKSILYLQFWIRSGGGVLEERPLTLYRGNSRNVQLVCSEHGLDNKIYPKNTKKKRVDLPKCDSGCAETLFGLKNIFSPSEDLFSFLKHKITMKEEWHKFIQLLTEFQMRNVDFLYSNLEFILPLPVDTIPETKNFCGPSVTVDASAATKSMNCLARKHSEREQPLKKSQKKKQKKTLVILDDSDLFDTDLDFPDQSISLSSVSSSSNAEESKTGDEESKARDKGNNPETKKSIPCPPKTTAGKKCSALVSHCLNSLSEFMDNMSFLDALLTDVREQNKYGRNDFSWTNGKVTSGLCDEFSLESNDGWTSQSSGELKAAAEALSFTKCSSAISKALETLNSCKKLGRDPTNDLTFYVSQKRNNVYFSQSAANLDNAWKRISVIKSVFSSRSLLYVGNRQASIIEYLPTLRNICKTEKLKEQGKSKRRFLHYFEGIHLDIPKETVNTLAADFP
Method in brief: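 Luciferase read-out, ONE-Glo, 30 min at room temperature, follows 16 h co-exposure at 37 C of compound and the DNA-damaging agent 5-fluorouridine. Cells: HEK293T with ELG1-luciferase fusion, 2,000 per well, DMSO as vehicle.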

[7] = Validation screen for small molecules that induce DNA re-replication in SW480 colon adenocarcinoma cells (AID 504364); also: potency is read from the fitted curve at half-maximal effect
Method in brief: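 Image-based DNA content read-out: Hoechst stain 40 min, total nuclear fluorescence intensity (ex 405 nm, em 500-530 nm) after 48 h compound exposure of 250 SW480 cells/well at 37 C, 5% CO2, versus DMSO vehicle.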

[8] = molecular target: Peptidyl-prolyl cis-trans isomerase NIMA-interacting 1 (Homo sapiens) (UniProt Q13526); assay: qHTS Validation Assay to Find Inhibitors of Pin1 (AID 504536; active = well fitted inhibition curve with a large enough effect in the polarisation, with a control signal flat, not every such curve was filed as active; inconclusive = small, poorly fitted or top-dose-only effect, or effect the other way; the % refers to the polarisation; also: potency is read from the fitted curve at half-maximal effect)
UniProt Q13526, sequence (Q13526 whole entry, looked up): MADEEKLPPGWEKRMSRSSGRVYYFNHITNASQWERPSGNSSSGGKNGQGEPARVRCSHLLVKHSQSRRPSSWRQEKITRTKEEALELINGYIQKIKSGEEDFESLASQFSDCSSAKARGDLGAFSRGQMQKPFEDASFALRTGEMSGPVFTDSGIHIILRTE
Method in brief: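 Fluorescence polarization competition: compounds (titration) displace HiFluor-488-labeled Pin1-1b peptide from Pin1 (0.3 uM final) in pH 7.5 HEPES buffer with DTT, 10 min at room temperature; %Activity normalized to no-enzyme wells, curves fitted.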

[9] = molecular target: Glutaminase kidney isoform, mitochondrial (Homo sapiens) (UniProt O94925); assay: qHTS for Inhibitors of Glutaminase (GLS): LOPAC Validation (AID 624146); also: potency is read from the fitted curve at half-maximal effect; nearly all actives have a fitted effect of over 60% in size
UniProt O94925, sequence (O94925 whole entry, looked up, canonical isoform): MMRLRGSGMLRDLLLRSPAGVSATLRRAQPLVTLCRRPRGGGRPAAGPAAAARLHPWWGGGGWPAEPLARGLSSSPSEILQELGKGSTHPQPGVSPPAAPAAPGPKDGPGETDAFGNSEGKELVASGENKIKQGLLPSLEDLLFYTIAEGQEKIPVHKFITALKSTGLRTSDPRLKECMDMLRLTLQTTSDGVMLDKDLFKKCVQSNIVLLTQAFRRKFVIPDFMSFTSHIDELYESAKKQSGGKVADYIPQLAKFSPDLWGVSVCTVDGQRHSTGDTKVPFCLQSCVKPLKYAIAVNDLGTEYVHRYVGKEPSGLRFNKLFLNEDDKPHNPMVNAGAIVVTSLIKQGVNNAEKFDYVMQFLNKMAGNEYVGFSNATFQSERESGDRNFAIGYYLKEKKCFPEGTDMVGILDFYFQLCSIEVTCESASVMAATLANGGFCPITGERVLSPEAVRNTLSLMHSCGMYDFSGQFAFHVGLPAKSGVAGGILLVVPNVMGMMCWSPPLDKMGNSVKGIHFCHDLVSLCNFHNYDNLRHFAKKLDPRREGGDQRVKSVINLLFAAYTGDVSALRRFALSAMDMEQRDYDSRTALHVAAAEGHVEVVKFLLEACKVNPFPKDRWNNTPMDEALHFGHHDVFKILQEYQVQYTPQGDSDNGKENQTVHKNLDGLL
Method in brief: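 Human kidney-isoform GLS in 45 mM KH2PO4 pH 8.2, 0.02% Tween-20, with compound, started with 1mM L-Glutamine (added stock). Glutamate oxidase/HRP/Amplex red coupled fluorescence read at start and after 30 min at RT.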

[10] = qHTS for Activators of Parkin Expression: LOPAC Validation Assay (NLuc Reporter) (AID 720572; also: potency is read from the fitted curve at half-maximal effect); details: Parkin promoter NanoLuc reporter cells, luminescence
Method in brief: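 Cells harboring the Parkin-promoter coincidence reporter were treated for 24 h at seven concentrations. NLuc output was measured sequentially after the FLuc channel and scaled between DMSO and positive control values.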

[11] = molecular target: Peroxisome proliferator-activated receptor delta (Homo sapiens) (UniProt Q03181); assay: qHTS assay for small molecule agonists of peroxisome proliferator-activated receptor delta signaling (AID 588534; calls by dose curve;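 also: 0% = DMSO basal wells and 100% = positive control agonist at 10 µM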); details: HEK293T PPARdelta-UAS-bla, beta-lactamase ratio, 18 h; activation: at 76.7 µM (top of the series)
UniProt Q03181, sequence (Q03181 whole entry, looked up): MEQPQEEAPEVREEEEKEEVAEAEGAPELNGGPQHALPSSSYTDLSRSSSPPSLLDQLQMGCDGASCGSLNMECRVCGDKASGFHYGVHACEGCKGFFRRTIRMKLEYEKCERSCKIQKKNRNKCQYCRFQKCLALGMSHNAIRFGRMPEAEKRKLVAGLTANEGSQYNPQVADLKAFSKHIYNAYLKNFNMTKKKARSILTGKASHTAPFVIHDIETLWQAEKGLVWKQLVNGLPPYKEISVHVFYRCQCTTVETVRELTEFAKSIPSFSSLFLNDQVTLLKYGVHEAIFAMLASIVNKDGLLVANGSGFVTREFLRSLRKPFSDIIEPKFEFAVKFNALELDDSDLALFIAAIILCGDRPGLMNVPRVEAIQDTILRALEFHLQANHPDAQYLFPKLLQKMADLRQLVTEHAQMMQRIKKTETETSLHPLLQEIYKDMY
Method in brief: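 Agonist-mode beta-lactamase reporter readout (CCF4 dye, 2 h at RT) after 18 h at 37 °C exposure to a titration; Hill-equation fitting gave EC50 and maximal response.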

[12] = molecular target: Vitamin D3 receptor (Homo sapiens) (UniProt P11473); assay: qHTS assay for small molecule agonists of vitamin D receptor signaling (AID 588543; calls by dose curve; also: potency is read from the fitted curve at half-maximal effect); details: HEK293T VDR-UAS-bla, beta-lactamase ratio, 16 h; activation: at 76.8 µM (top of the series)
Method in brief: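 Measured: β-lactamase reporter activity (CCF4, 405 nm excitation, 460/530 nm emission) in HEK293T VDR-UAS-bla cells after 16 h compound exposure at 37 °C. Normalization against 50 nM 1α,25-dihydroxyvitamin D3 and DMSO; Hill-fit EC50.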

[13] = qHTS assay for small molecule antagonists of the retinoid-related orphan receptor gamma (ROR-gamma) signaling pathway - cell viability counter screen (AID 720652; active = well fitted curve in the direction sought with a large enough effect in the repeat runs; inconclusive = weak or mixed curves; inactive = no such curve, though single readings can be large; an effect the other way counts as inactive or inconclusive;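 also: CHO reporter cells with doxycycline-induced ROR-gamma expression; compound exposure lasted 16 hr before ATP read; % is scaled to controls: 0 for no effect and ±100 for the full control effect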)
Method in brief: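 Cytotoxicity counter screen: intracellular ATP (CellTiter-Glo luminescence) measured in the doxycycline-induced CHO RORE-luciferase reporter line after 16 hr compound exposure at 37 C, 5% CO2.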

[14] = qHTS assay for cell viability of the p53RE-bla HCT-116 cell line (AID 743292); also: % is scaled to controls: 0 for no effect and ±100 for the full control effect; nearly all actives have a fitted effect of over 55% in size
Method in brief: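 CellSensor p53RE-bla HCT-116 cells, 4,000/well, preincubated 5 h at 37 C, then exposed to compounds in DMSO for 16 h at 37 C. Viability read as CellTiter-Glo luminescence (intracellular ATP) after 30 min at room temperature.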

[15] = qHTS for differential inhibitors of proliferation of Plasmodium falciparum line GB4 (AID 1816); details: Potency: Plasmodium falciparum GB4 proliferation inhibition;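 also: parasite growth measured after 72 h incubation; 0% = vehicle DMSO and -100% = reference inhibitor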
[16] = qHTS for differential inhibitors of proliferation of Plasmodium falciparum line W2 (AID 1883); details: Potency: Plasmodium falciparum W2 proliferation inhibition;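 also: parasites grown with compound for 72 h before lysis and staining; 0% = vehicle wells and -100% = control inhibitor wells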
[17] = test system: Zika virus NS2B-NS3 protease (unlinked); assay: Optimization of GU AMC qHTS for Zika virus inhibitors: Unlinked NS2B-NS3 protease assay (AID 1347151);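 also: 0% = no-inhibitor control and -100% = no-enzyme control; nearly all actives have a fitted effect of over 80% in size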
Method in brief: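 In this qHTS, compounds acted on 25 nM unlinked Zika NS2B–NS3 in pH 8.0 Tris/Tween buffer. Cleavage of an AMC peptide ran 15 min at room temperature, to about 20% conversion.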

[18] = NFAT Signaling Pathway (AID 444; active = well fitted curve in either direction with a large enough effect, not every such curve was filed as active; inconclusive = small, poorly fitted or top-dose-only effect, or another doubt;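 also: carbachol stimulus at about its EC50 of 1 µM final; % is scaled to controls: 0 for no effect and ±100 for the full control effect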); details: Jurkat NFAT-bla M1, carbachol, beta-lactamase ratio, 5 h; at 17.2 µM (top of the series)
Method in brief: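 Jurkat cells carrying an NFAT-driven β-lactamase reporter and co-transfected muscarinic M1 receptor were treated with compound plus carbachol (1 uM final, an EC50 level) for 5 h at 37 °C. CCF4 loading followed for 1 h at RT; 460/530 nm ratio gave %activity.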
Tags tell the direction and shape of the fitted curve or compound fluorescence and quenching.

COC(=O)C1=C(C)NC(C)=C(C(=O)OCCN(C)Cc2ccccc2)C1c1cccc([N+](=O)[O-])c1 (stereo not drawn)
active: Potency [3] 18.5 µM | Potency [6] 16.4 µM | Potency [10] 16.4 µM
inconclusive: Potency [1] 18.5 µM [falling, single point] | Potency [2] 23.3 µM [falling, single point] | Potency [4] 26.1 µM [falling, single point] | Potency [5] 22.4 µM [activator, single point] | Potency [7] 23.1 µM [activator, single point] | Potency [8] 0.006 µM [falling, full curve, poor fit] | Potency [9] 2 µM [inhibitor, partial curve, poor fit]

CCCN(CCC)S(=O)(=O)c1ccc(C(=O)O)cc1
inconclusive: Potency [12] 0.0014 µM [side channel, falling, full curve, poor fit]
inactive: Potency [11] | Potency [13] | Potency [14]

CCCN(CCC)C(=O)C(CCC(=O)O)NC(=O)c1ccccc1 (stereo not drawn)
inactive: Potency [15] | Potency [16] | Potency [17]

C[C@@H]1C[C@H]2[C@@H]3CCC4=CC(=O)C=C[C@]4(C)[C@@]3(F)[C@@H](O)C[C@]2(C)[C@@]1(O)C(=O)COP(=O)(O)O
inconclusive: activity change, negative = inhibition [18] 24.2% [activator]
